PubChem BioAssay AID588591 (National Center for Advancing Translational Sciences (NCATS), 2011)
The campaign covered roughly 390,000 compounds. About 4,700 (1.2%) were called active. This list was built around the results that the source calls inconclusive (neither active nor inactive); the mix of calls is not that of the screen. The call rests on the fitted dose curve; in most records, active means well fitted inhibition curve with a large enough effect; inconclusive means small, poorly fitted or top-dose-only effect, or another doubt; inactive means no such curve, though single readings can be large or run the other way. A potency beside an inconclusive call is a rough fit, not a confirmed value.

The compounds below were run against DNA polymerase eta (Homo sapiens) (UniProt Q9Y253) (assay: qHTS for Inhibitors of Polymerase Eta). Details: recombinant Pol eta, fluorescent DNA replication assay; series mostly up to 114 µM.
Sequence of UniProt Q9Y253 (Q9Y253 whole entry, looked up): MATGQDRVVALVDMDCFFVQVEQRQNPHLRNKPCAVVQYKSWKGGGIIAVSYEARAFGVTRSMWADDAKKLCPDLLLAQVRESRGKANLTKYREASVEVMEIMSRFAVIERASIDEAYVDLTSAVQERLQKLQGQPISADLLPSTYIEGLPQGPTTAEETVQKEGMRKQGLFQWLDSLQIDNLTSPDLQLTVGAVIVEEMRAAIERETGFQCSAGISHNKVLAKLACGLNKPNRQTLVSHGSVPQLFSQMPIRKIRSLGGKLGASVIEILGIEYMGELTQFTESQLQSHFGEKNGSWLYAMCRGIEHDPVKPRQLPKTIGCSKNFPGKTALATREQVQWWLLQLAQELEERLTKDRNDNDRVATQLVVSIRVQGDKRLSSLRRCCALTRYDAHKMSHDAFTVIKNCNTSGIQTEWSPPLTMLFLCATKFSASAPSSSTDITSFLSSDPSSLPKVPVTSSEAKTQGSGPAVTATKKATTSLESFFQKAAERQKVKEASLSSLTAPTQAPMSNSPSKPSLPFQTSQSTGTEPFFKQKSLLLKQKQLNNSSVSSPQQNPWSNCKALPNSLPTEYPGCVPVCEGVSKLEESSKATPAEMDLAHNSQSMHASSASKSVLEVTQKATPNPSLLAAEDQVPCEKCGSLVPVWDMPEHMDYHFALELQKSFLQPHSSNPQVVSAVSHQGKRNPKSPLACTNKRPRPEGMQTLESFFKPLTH
Procedure, shortened: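 Pol eta at 10 nM preincubated with compounds 15 min at room temperature; reaction started with fluorescent substrate (50 nM final) and read kinetically at 0 and 10 min.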
Potency means the concentration at half of the fitted maximal effect; tags describe the fitted curve by direction and shape.

SMILES | Potency
CC(C)(C)C1CCC(C(=O)Nc2ccccc2N2CCOCC2)CC1 (stereo not drawn) | inconclusive: 112 µM [inhibitor, partial curve, poor fit]
Cc1nn(CCCC(=O)NCc2ccccc2)c(=O)c2nn(-c3ccccc3)c(C)c12 | inactive
Cc1cc(C(=O)CSc2nc(N)cc(=O)[nH]2)c(C)n1CC1CCCO1 (stereo not drawn) | inconclusive: 22.4 µM [inhibitor, single point]
O=CN(/C=C1\Sc2ccccc2C1=O)Cc1ccccc1 | inconclusive: 39.8 µM [inhibitor, partial curve, poor fit]
NC(=S)NN=C1c2ccccc2-c2c(F)c(F)c(F)c(F)c21 | inconclusive: 12.6 µM [inhibitor, partial curve]
C=C(C)COc1ccc(-c2[nH]ncc2-c2ccc(Br)cc2)c(O)c1 | inconclusive: 89.1 µM [inhibitor, partial curve, poor fit]
O=c1c2oc3ccccc3c2n(Cc2cccc(F)c2)c(=O)n1Cc1ccc2c(c1)OCO2 | inactive
CCC1(c2ccc(F)cc2)NC(=O)N(CC(=O)c2ccc[nH]2)C1=O (stereo not drawn) | inconclusive: 39.8 µM [inhibitor, partial curve, poor fit]
C[C@H](NC(=O)C1CCC(CNC(=O)[C@@H]2CCCN2C(=O)OC(C)(C)C)CC1)C(=O)O (stereo partly drawn) | inactive
Cc1ccc(-c2nc(N)sc2CC(=O)OCC(=O)NCC2CCCO2)cc1 (stereo not drawn) | inconclusive: 44.7 µM [inhibitor, partial curve, poor fit]
O=C(N/N=C\c1cccnc1)c1cc(-c2ccc(Cl)s2)[nH]n1 | inconclusive: 35.5 µM [inhibitor, full curve]
CC(=O)c1c(C)oc2ccc(NS(=O)(=O)c3ccc(O)c(C(=O)O)c3)cc12 | active: 25.1 µM
Cc1cccc2sc(N(CCN(C)C)C(=O)/C=C/c3cccs3)nc12 | inconclusive: 89.1 µM [inhibitor, partial curve, poor fit]
O=C(O)c1cccc(N2C(=O)c3ccc4c5c(ccc(c35)C2=O)C(=O)N(c2cccc(C(=O)O)c2)C4=O)c1 | inconclusive: 50.1 µM [inhibitor, partial curve]
CC(C)Cn1c(-c2ccco2)csc1=Nc1cccnc1 | inconclusive: 31.6 µM [inhibitor, partial curve, poor fit]
Cc1c(C(=O)OC(C)C)sc(NC(=O)c2cccnc2)c1C#N | inconclusive: 22.4 µM [inhibitor, single point]
CCc1nnc(NC(=O)c2sc3nc4c(cc3c2N)CCCCC4)s1 | inconclusive: 22.4 µM [inhibitor, partial curve, poor fit]
Cc1ccc(C(=O)NNc2c3ccccc3nc3ccccc23)cc1 | inconclusive: 56.2 µM [inhibitor, partial curve, poor fit]
CC(=O)c1ccc(N2CCN(c3ccc4cc(S(=O)(=O)N5CCC(C)CC5)ccc4n3)CC2)cc1 | inconclusive: 20 µM [inhibitor, full curve, poor fit]

SMILES | Potency
CCOc1ccc2nc(NC(=O)Cn3[nH]c(=O)c4ccccc4c3=O)sc2c1 | inconclusive: 35.5 µM [inhibitor, partial curve, poor fit]
N#Cc1c(NC(=O)c2ccc([N+](=O)[O-])o2)sc2c1CCC2 | inconclusive: 20 µM [inhibitor, full curve]
Cc1cc(C2C(=O)CC(=O)CC2c2ccccc2)on1 (stereo not drawn) | inconclusive: 15.8 µM [inhibitor, partial curve, poor fit]
C[C@@H]1CCCCO[C@@H](CN(C)CC2CCCCC2)[C@@H](C)CN([C@H](C)CO)C(=O)c2cc(NS(=O)(=O)c3ccc(Cl)cc3)ccc2O1 | inconclusive: 63.1 µM [inhibitor, partial curve, poor fit]
CC1(C)CC2CC(C)(CN2C(=O)COC(=O)c2ccc(O)cc2O)C1 (stereo not drawn) | inconclusive: 17.8 µM [inhibitor, full curve]
Cc1cc(C)cc(-n2c(SCC(=O)NC3CCCCC3)nc3c([nH]c4ccccc43)c2=O)c1 | inactive
O=c1c(Cl)c(N/N=C/c2ccc(Br)cc2)cnn1-c1ccccc1 | inconclusive: 12.6 µM [inhibitor, full curve, poor fit]
Cc1ccc(S(=O)(=O)N2CCSC2c2ccco2)cc1 (stereo not drawn) | inconclusive: 35.5 µM [inhibitor, partial curve, poor fit]
Cc1cc(C)n2nc(C(=O)N/N=C/c3c4ccccc4cc4ccccc34)nc2n1 | inconclusive: 12.6 µM [inhibitor, full curve, poor fit]
Cc1ccc(S(=O)(=O)CCc2nnc(NC(=O)CCl)s2)cc1C | inconclusive: 56.2 µM [inhibitor, partial curve, poor fit]
Cc1c(Cl)cccc1NC(=O)c1cc2nc(-c3ccc4c(c3)OCO4)cc(C(F)(F)F)n2n1 | inactive
O=C(COc1ccccc1)OCc1cc(=O)n2nc(-c3cccs3)sc2n1 | inconclusive: 89.1 µM [inhibitor, partial curve]
COc1cc(/C=N/NC(=O)c2cccc([N+](=O)[O-])c2)ccc1OCc1ccc(C)cc1 | inconclusive: 22.4 µM [inhibitor, partial curve]
N#C/C(=C\c1ccc(-c2ccc(F)cc2)o1)C(=O)Nc1nc(-c2cccs2)cs1 | inconclusive: 3.16 µM [inhibitor, partial curve, poor fit]
CC(OC(=O)CNC(=O)c1ccc2c(c1)OCO2)C(=O)NCCC1=CCCCC1 (stereo not drawn) | inconclusive: 2.51 µM [inhibitor, partial curve, poor fit]
Cc1ccc(-c2ccc(/C=N/NC(N)=S)o2)cc1 | inactive
CC(=O)NC12CC3CC(C1)CC(C(=O)OCC(=O)c1cc(C)n(C)c1C)(C3)C2 | inactive
O=C(CSc1nnc(-c2ccccc2)n1-c1ccc(Cl)cc1)N/N=C/c1ccccc1C(=O)O | inconclusive: 112 µM [inhibitor, partial curve, poor fit]
CCn1c2ccccc2c2nc3ccccc3nc21 | inconclusive: 22.4 µM [inhibitor, partial curve, poor fit]
